In PubChem BioAssay AID1347165 (National Center for Advancing Translational Sciences (NCATS), 2019):
The whole screen tested about 220,000 compounds, of which about 5,700 (2.6%) were called active. The inconclusive results got no clear call from the source; some entries with a clear call stand among them for comparison. Calls follow the shape of the dose curve; as a rule, active = well fitted inhibition curve with a large enough effect; inconclusive = small, poorly fitted or top-dose-only effect; inactive = no such curve, though single readings can be large or run the other way. A potency beside an inconclusive call is a rough fit, not a confirmed value.

What follows are compounds tested against Lysine-specific demethylase 5B (Homo sapiens) (UniProt Q9UGL1) (assay: Primary screen for KDM5B Histone Demethylases FDH-coupled qHTS). Conditions: FDH-coupled NADH fluorescence (FDH is formaldehyde dehydrogenase); series mostly up to 57.7 µM.
Sequence of UniProt Q9UGL1 (Q9UGL1 whole entry, looked up): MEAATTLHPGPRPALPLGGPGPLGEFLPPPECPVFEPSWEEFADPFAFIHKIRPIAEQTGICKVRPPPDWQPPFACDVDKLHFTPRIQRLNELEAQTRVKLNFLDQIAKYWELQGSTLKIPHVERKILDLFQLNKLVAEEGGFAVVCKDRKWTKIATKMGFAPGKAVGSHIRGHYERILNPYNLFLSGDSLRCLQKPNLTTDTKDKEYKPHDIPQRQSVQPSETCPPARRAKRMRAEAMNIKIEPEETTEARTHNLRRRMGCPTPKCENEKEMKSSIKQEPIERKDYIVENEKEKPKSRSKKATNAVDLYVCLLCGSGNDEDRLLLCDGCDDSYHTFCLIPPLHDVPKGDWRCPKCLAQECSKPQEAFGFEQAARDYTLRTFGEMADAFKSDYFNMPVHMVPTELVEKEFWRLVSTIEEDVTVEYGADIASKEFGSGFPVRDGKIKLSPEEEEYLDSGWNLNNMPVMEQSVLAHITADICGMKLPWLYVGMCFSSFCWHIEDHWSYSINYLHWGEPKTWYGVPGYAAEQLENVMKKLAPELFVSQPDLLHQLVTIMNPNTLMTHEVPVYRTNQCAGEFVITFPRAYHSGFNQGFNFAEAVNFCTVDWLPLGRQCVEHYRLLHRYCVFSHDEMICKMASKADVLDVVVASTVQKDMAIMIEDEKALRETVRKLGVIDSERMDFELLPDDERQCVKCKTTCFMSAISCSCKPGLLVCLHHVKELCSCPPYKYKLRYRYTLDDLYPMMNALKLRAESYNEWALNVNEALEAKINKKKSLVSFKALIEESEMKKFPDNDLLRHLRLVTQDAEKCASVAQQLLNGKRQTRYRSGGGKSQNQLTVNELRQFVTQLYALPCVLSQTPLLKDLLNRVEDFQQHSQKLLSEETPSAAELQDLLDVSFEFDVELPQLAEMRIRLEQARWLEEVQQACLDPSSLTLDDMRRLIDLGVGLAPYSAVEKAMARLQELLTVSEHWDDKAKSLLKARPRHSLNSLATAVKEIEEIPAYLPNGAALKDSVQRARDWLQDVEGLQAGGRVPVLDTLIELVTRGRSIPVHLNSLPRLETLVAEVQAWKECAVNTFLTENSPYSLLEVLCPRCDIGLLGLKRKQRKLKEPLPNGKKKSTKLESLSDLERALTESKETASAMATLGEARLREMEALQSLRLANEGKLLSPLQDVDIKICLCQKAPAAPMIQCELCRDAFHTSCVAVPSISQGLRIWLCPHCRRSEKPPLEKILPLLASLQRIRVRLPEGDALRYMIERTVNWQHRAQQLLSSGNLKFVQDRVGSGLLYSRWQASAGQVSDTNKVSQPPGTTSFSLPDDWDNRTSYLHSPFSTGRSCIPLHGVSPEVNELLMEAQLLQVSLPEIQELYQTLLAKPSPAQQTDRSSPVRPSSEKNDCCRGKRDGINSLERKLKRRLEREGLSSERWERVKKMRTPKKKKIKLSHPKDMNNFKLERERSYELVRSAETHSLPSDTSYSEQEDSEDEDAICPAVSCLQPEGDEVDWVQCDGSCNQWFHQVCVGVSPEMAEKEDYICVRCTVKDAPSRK
Procedure, shortened: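 Coupled FDH/NAD⁺ fluorescence readout. KDM5BΔAP 200 nM final; compound titration, 10 min RT preincubation; substrate mix 12.5 µM H3K4me3, 25 µM 2-OG, 50 µM Fe(II), 100 µM ascorbate, 0.25 mM NAD⁺, 0.25 U/mL FDH; ΔRFU over 30 min.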
Also: nearly all actives have a fitted effect of over 70% in size.
Potency is read from the fitted curve at half-maximal effect; tags tell the direction and shape of the fitted curve.

| SMILES | Potency |
| --- | --- |
| O=C(c1cccs1)N1CCC2(CC1)CN(Cc1ccccc1)CC2CO (stereo not given) | inconclusive: 39.8 µM [inhibitor, single point] |
| CCc1ccc(C(CNC(=O)c2nn(C)c(=O)c3ccccc23)N(C)C)cc1 (stereo not given) | inactive |
| Cc1noc(-c2ccc3c(c2)OCO3)c1C(=O)NCc1cccc(Cl)c1 | active: 31.6 µM |
| CCC(Oc1ccccc1)C(=O)Nc1cccc(OCc2cc(=O)n3cccc(C)c3n2)c1 (stereo not given) | inconclusive: 35.5 µM [inhibitor, partial curve, poor fit] |
| O=C(CCCc1nc2ccccc2s1)NC1CCSc2c(F)cccc21 (stereo not given) | inactive |
| CCCCNC(=O)c1cc2ccc(OC)cc2nc1C | inconclusive: 31.6 µM [inhibitor, single point] |
| Cc1cccc(CC(=O)N2CCCC(n3cc(-c4nc(-c5ccccc5)no4)nn3)C2)c1 (stereo not given) | inactive |
| Cc1nc2cc(NS(=O)(=O)c3c(C)c(C)c(C)c(C)c3C)ccc2o1 | inactive |
| COC(=O)c1ccncc1C(=O)Nc1ccc(Oc2ncc(C(F)(F)F)cc2Cl)cc1 | inconclusive: 20 µM [inhibitor, single point] |
| COc1ccc(C(=O)NCC(c2ccc(N(C)C)cc2)N2CCOCC2)cc1 (stereo not given) | inactive |
| Cc1ccc(C(=O)NC[C@H]2O[C@@H](CC(=O)NC(C)C)[C@H](O)[C@@H]2O)cc1 | inconclusive: 31.6 µM [inhibitor, partial curve] |
| CN1CCCN(S(=O)(=O)c2ccc(Cl)s2)c2ccccc21 | inactive |
| COc1cccc(NC(=O)c2cc3c(s2)-c2ccc(Cl)cc2S(=O)(=O)C3)c1 | inactive |
| O=C1COc2ccc(-c3ccc(Cl)cc3)nc2CN1Cc1ccccc1 | inconclusive: 25.1 µM [inhibitor, single point] |
| COc1cccc(CC(=O)NCCn2ccn3nc(-c4cccc(OC)c4)cc3c2=O)c1 | inconclusive: 15.8 µM [inhibitor, partial curve, poor fit] |
| Cc1ccccc1C(=O)Nc1sc2c(c1C(=O)N1CCCCC1)CCC(C(C)(C)C)C2 (stereo not given) | inconclusive: 31.6 µM [inhibitor, single point] |
| COc1ccc2c(COC(=O)c3ccccc3C)cc(=O)oc2c1 | inconclusive: 22.4 µM [inhibitor, partial curve, poor fit] |
| COCCNC(=O)[C@@H]1C[C@H](Oc2ccccc2)CN1C(=O)c1ccc2ncccc2c1 | inactive |
| O=C(O)C1CCc2nnc(C3CCCN([S+](=O)([O-])c4ccccc4)C3)n21 (stereo not given) | active: 56.2 µM |
| O=C(c1ccccc1O)N1CCN(C(=O)c2cc(=O)[nH]c3ccccc23)CC1 | inconclusive: 31.6 µM [inhibitor, partial curve, poor fit] |
